{"source": "PubChem BioAssay AID1345083", "about": "(National Center for Advancing Translational Sciences (NCATS), 2018)", "note": "Out of some 94,000 compounds screened, about 6,200 (6.6%) were called active. This list was built around the results that the source calls inconclusive (neither active nor inactive); the mix of calls is not that of the screen. Calls follow the shape of the dose curve; as a rule, active = well fitted inhibition curve with a large enough effect; inconclusive = small, poorly fitted or top-dose-only effect; inactive = flat fitted curve, though single readings scatter. Potencies of inconclusive entries are doubtful fits and often do not repeat."}
{"assay": "Cytotoxic Profiling in HEK 293 Cell Line of Diverse Libraries Using Quantitative High-Throughput Screening; also: nearly all actives have a fitted effect of over 60% in size; also: potency is read from the fitted curve at half-maximal effect; tags tell the direction and shape of the fitted curve", "conditions": "HEK 293 viability, ATP luminescence (CellTiter-Glo), 48-72 h; series mostly up to 115 µM", "procedure,_shortened": "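Luminescence from cellular ATP, measured with CellTiter-Glo, indicates HEK 293 viability. Cells plated at 250 cells/well are treated with compound for 48 or 72 hr at 37 degree Celsius before reagent addition.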"}
{"molecule": "O=C1CCCCC(CNC(=O)c2cncc(Br)c2)N1", "note": "(stereo not given)", "Potency": "inconclusive: 89.1 µM [inhibitor, single point]"}
{"molecule": "Cc1ccc(CNC(=O)CNC(=O)c2ccc(-c3cnc4ccccc4c3)cc2)o1", "Potency": "inconclusive: 31.6 µM [inhibitor, full curve]"}
{"molecule": "Cc1[nH]cnc1C(=O)N1CCC2(CC1)NC(=O)CC2C(=O)O", "note": "(stereo not given)", "Potency": "inactive"}
{"molecule": "COc1ccccc1C(=O)N1CC(Oc2ccc(F)cc2C)C1", "Potency": "active: 70.8 µM"}
{"molecule": "Cc1cccc(C(=O)N2CCC(Cc3ncc(C)n3C(C)C)C2)c1", "note": "(stereo not given)", "Potency": "inactive"}
{"molecule": "CCc1nc(-c2c3n(c(=O)n(Cc4c(F)cccc4Cl)c2=O)CCCC3)no1", "Potency": "inactive"}
{"molecule": "COc1ccc(-c2nnc([C@H]3CCN(Cc4ccc(F)c(F)c4)C3)o2)cc1", "Potency": "inconclusive: 100 µM [inhibitor, partial curve, poor fit]"}
{"molecule": "COc1ccc(-c2ccc(COc3ccc4c(cnn4CCC(=O)O)c3)cc2)c(Cl)c1", "Potency": "inconclusive: 100 µM [inhibitor, partial curve]"}
{"molecule": "Cc1cccc(CN2CCC(n3c(C)nn(C)c3=O)CC2)c1", "Potency": "inactive"}
{"molecule": "O=C(Cc1ccccc1)N1CCC(O)(c2csc(CN3CCc4ccccc4C3)n2)CC1", "Potency": "inconclusive: 50.1 µM [inhibitor, partial curve, poor fit]"}
{"molecule": "Cc1cccc(NC(=O)c2cc3n(n2)CC(c2ccc(Cl)cc2)OC3)c1C", "note": "(stereo not given)", "Potency": "inconclusive: 70.8 µM [inhibitor, partial curve]"}
{"molecule": "O=C(NCc1cccc(Cl)c1)c1noc(-c2ccc(F)cc2)n1", "Potency": "inconclusive: 35.5 µM [inhibitor, full curve, poor fit]"}
{"molecule": "COc1ccc(-c2nc(C(C)C)nc3c2CN([S+](=O)([O-])c2ccccc2)CC3)cc1", "Potency": "inactive"}
{"molecule": "Cn1cc(CC(=O)N2CCCc3ncc(C(=O)N4CCC(c5ccccc5)CC4)cc32)c2ccccc21", "Potency": "active: 39.8 µM"}
{"molecule": "CN(C)C(=O)NC1CCN(Cc2ccc(-c3ccsc3)cc2)C1", "note": "(stereo not given)", "Potency": "inconclusive: 100 µM [inhibitor, single point]"}
{"molecule": "O=C(NCCN1CCCC1)c1nnn2cc(-c3ccccc3)[nH]c(=O)c12", "Potency": "inactive"}
{"molecule": "N#Cc1cccc(-c2c(C(=O)NCc3cccs3)nc3sccn23)c1", "Potency": "inactive"}
{"molecule": "Cc1nn(-c2ccccc2)c2c1C(C1CC1)N(C1CCCN(C(=O)c3ccc(F)cc3)C1)C2=O", "note": "(stereo not given)", "Potency": "active: 31.6 µM"}
{"molecule": "Cn1ccc2c(C(=O)NCCC(N)=O)nc(-c3cccc(C(F)(F)F)c3)cc21", "Potency": "active: 89.1 µM"}
{"molecule": "Cc1cccc(OCCc2noc(C3CN(C(=O)CCc4ccccc4)C3)n2)c1", "Potency": "inconclusive: 79.4 µM [inhibitor, partial curve, poor fit]"}
{"molecule": "CN(C1CCCc2ccccc21)S(C)(=O)=O", "note": "(stereo not given)", "Potency": "inactive"}
{"molecule": "COC1C(=O)N(C2CCN(S(=O)(=O)c3cccc(F)c3)CC2)C12CCOCC2", "note": "(stereo not given)", "Potency": "inactive"}
{"molecule": "COc1ccccc1C(=O)N1CCC(CCOc2ccc(C)cc2)C1", "note": "(stereo not given)", "Potency": "active: 39.8 µM"}
{"molecule": "CNC(=O)C(C)(C)N1CCC[C@H]1C(=O)N1CCc2ccccc2C1", "Potency": "inconclusive: 112 µM [inhibitor, single point]"}
{"molecule": "COc1ccc(-c2noc([C@@H](C)NCc3ccc(C#N)cc3)c2C(=O)O)cc1", "Potency": "inactive"}
{"molecule": "NC(=O)Cn1ccc2cc(OCC3CCN(C(=O)C4CCCC4)CC3)cnc21", "Potency": "inconclusive: 79.4 µM [inhibitor, partial curve]"}
{"molecule": "Cc1ccc([S+](=O)([O-])NC2CCCN(Cc3ccc(-c4cc(C)cc(C)c4)cc3)C2)cc1", "note": "(stereo not given)", "Potency": "active: 39.8 µM"}
{"molecule": "Cc1ccc2c(c1)nc1n2[C@@H](CNC2CCC2)COC1", "Potency": "inconclusive: 141 µM [inhibitor, partial curve, poor fit]"}
{"molecule": "CC1(C(=O)O)CCN(C(=O)c2ccc(F)cc2)CC1", "Potency": "inactive"}
{"molecule": "O=C(NCCN1CCOCC1)c1ccc2nccn2c1", "Potency": "inactive"}
{"molecule": "COc1ccc2c(c1)OCC(C(=O)NCCCN1CCCc3ccccc31)C2", "note": "(stereo not given)", "Potency": "inconclusive: 50.1 µM [inhibitor, partial curve, poor fit]"}
{"molecule": "CCN(C)C(C)C(=O)N1CCc2onc(-c3ccc(C(F)(F)F)cc3)c2C1", "note": "(stereo not given)", "Potency": "inconclusive: 56.2 µM [inhibitor, partial curve, poor fit]"}
{"molecule": "O=C(Nc1cccc(Cl)c1Cl)N1CCC2(CC1)SCC(=O)N2Cc1ccco1", "Potency": "inconclusive: 89.1 µM [inhibitor, single point]"}
{"molecule": "COc1ccc(Cl)cc1NC(=O)[C@@H]1COCC(=O)N1Cc1ccc(OC)c(OC)c1", "Potency": "inconclusive: 39.8 µM [inhibitor, single point]"}
{"molecule": "CCN(C(=O)Cn1cccc1-c1nc(-c2ccc(OC)c(F)c2)no1)c1cccc(C)c1", "Potency": "inconclusive: 39.8 µM [inhibitor, full curve, poor fit]"}
{"molecule": "CC(C)Oc1ccc(C(=O)NC2CCN(c3cn[nH]c(=O)c3)CC2)cc1", "Potency": "inconclusive: 89.1 µM [inhibitor, single point]"}
{"molecule": "CNCC(=O)N[C@H]1CCN2C(=O)c3cc(-c4cc(Cl)ccc4OC)ccc3NC(=O)[C@@H]2C1", "Potency": "inconclusive: 50.1 µM [inhibitor, partial curve]"}
{"molecule": "FC(F)(F)c1cccc2c(N3CCOC(C(F)(F)F)C3)ccnc12", "note": "(stereo not given)", "Potency": "inconclusive: 22.4 µM [inhibitor, full curve]"}
{"molecule": "COc1cccc2c1OCC(Cc1cccc(N3CCNCC3)c1)C2", "note": "(stereo not given)", "Potency": "inconclusive: 50.1 µM [inhibitor, partial curve, poor fit]"}
{"molecule": "COc1cccc(CN2CCc3nc(C(=O)Nc4cccnc4)oc3CC2)c1", "Potency": "inconclusive: 100 µM [inhibitor, partial curve, poor fit]"}
{"molecule": "COc1cccc(Nc2nc(-c3ccccc3)no2)c1", "Potency": "inconclusive: 44.7 µM [inhibitor, partial curve, poor fit]"}
{"molecule": "CC(C)C(=O)N1CCCC(c2noc(COc3ccccc3F)n2)C1", "note": "(stereo not given)", "Potency": "inconclusive: 25.1 µM [inhibitor, partial curve, poor fit]"}
{"molecule": "COCc1cc(=O)n(CC(=O)Nc2cc(Cl)ccc2C)c(N2CCOCC2)n1", "Potency": "inactive"}
{"molecule": "O=C1NCCCCCN(C(=O)NC2CCCCC2)[C@H]2CCC[C@@H]12", "Potency": "inactive"}
{"molecule": "Cc1ccc(CNC2CN(C(=O)OC(C)(C)C)C2)cc1", "Potency": "inactive"}
